Source: PubChem BioAssay AID686979 (National Center for Advancing Translational Sciences (NCATS), 2013)
About 50,000 (12%) of roughly 420,000 compounds were called active. The shares of active, inactive and inconclusive entries below differ from those in the screen. The call rests on the fitted dose curve; in most records, active means well fitted inhibition curve with a large enough effect; inconclusive means small, poorly fitted or top-dose-only effect; inactive means flat fitted curve, though single readings scatter. No potency is given beside an inconclusive call; the fits are too rough.

Experiment: qHTS for Inhibitors of human tyrosyl-DNA phosphodiesterase 1 (TDP1): qHTS in cells in presence of CPT; further: nearly all actives have a fitted effect of over 55% in size
Settings: chicken DT40 Tdp1-/-;hTDP1 cells + 20 nM CPT, ATP luminescence, 48 h; activity change, negative = growth inhibition: at 46.2 µM (top of the series) unless noted
Procedure, shortened: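 Chicken DT40 Tdp1-/- cells complemented with human TDP1, 400 cells/well, exposed to compounds plus 20 nM camptothecin for at least 48 h at 37 C; viability read as ATP content by CellTiter-Glo luminescence.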
On the % scale 0 is the no-effect control and ±100 the full control effect; potency means the concentration at half of the fitted maximal effect; tags describe the fitted curve by direction and shape.

SMILES	activity change, negative = growth inhibition	Potency
CCN(CC)C(=O)c1cc(Cl)ccc1NC(=O)c1ccco1	inactive: -2.66%	
N#CCC(=O)Nc1ccc(C(=O)NNC(=S)NC2CC2)cc1	inactive: 1.12%	
CN(C)S(=O)(=O)N(CC(=O)Nc1ccc(F)c(F)c1)c1ccccc1	inactive: -17.3%	
Cc1nc2cc(-c3ccc(Cl)cc3)nn2c(NCCN(C)C)c1C		active: 7.31 µM
Cc1ccc(NC2=NCC(Cc3ccc(Br)cc3)S2)cc1 (configuration not stated)		inconclusive [inhibitor, single point]
CC1CC2OC(=O)C3(C)CCCC(C)(C23)C1(O)CCc1ccoc1 (configuration not stated)	inactive: -29.3%	
CCN(CC)c1ccc(NC(=O)COc2ccccc2C)cc1S(=O)(=O)Nc1ccccc1OC		inconclusive [inhibitor, single point]
O=C(C1CCC(CNc2c(N3CCCC3)c(=O)c2=O)CC1)N1CCc2ccccc21 (configuration not stated)		inconclusive [inhibitor, single point]
COc1ccccc1N1CCN(CCCNC(=O)c2cnn(-c3ccccc3Cl)c2C2CCN(C(=O)OC(C)(C)C)CC2)CC1		active: 8.2 µM
CC(C)NC(=O)CSc1nc2ccccc2nc1N1CCCCC1		inconclusive [inhibitor, partial curve, poor fit]
CC(C)CCN1C(=O)N(c2ccccc2)C(=O)C1CC(=O)Nc1ccc(Cl)cc1 (configuration not stated)		inconclusive [inhibitor, single point]
COc1ncc2nc(CCc3ccccc3)c(=O)n(CCc3ccccc3)c2n1		inconclusive [inhibitor, single point]
COc1ccccc1CC(=O)N1CCCC(CCC(=O)NCc2ccccc2F)C1 (configuration not stated)		inconclusive [inhibitor, partial curve]
COC(=O)c1ccccc1NC(=O)c1ccc(COc2ccccc2)o1	inconclusive: -32.3% [inhibitor]	
Fc1ccc(C(c2nnnn2C2CCCC2)N2CCN(Cc3ccncc3)CC2)cc1 (configuration not stated)	inactive: -19.4%	
C[C@@H]1CN([C@@H](C)CO)S(=O)(=O)c2ccc(C#Cc3cccc(F)c3)cc2O[C@@H]1CN(C)CC1CC1		inconclusive [inhibitor, single point]
COc1ccc(C(=O)N2CCCC(Nc3ccc(C)c(C)c3)C2)cc1 (configuration not stated)		inconclusive [inhibitor, single point]
CC(C)(C)NC(=O)CON=C1c2ccccc2-c2ccccc21		active: 23.1 µM
COc1cc(OC)c(NC(=O)Nc2nnc(N(C)C3CCCCC3)s2)cc1Cl		active: 20.6 µM
CCOc1cccc2sc(N(Cc3cccnc3)C(=O)c3ccco3)nc12		inconclusive [inhibitor, single point]
CCOc1ccc(NC(=O)N2CC=C(n3c(=O)[nH]c4ccccc43)CC2)cc1		inconclusive [inhibitor, single point]
Cc1cc(O)cc(C)c1NS(=O)(=O)c1ccc2ccccc2c1		inconclusive [inhibitor, single point]
Cc1ccc(N2CC(NC(=O)Cc3cccs3)CC2=O)cc1 (configuration not stated)	inactive: -2.46%	
CCn1cc(C(=O)O)c(=O)c2cc(F)c(N3CCN(C(=S)NC(=O)c4ccc(OC)cc4)CC3)cc21		inconclusive [inhibitor, single point]

SMILES	activity change, negative = growth inhibition	Potency
Cc1cc2nc(SCCN3CCCC3)[nH]c2cc1C		inconclusive [inhibitor, single point]
O=C(/C=C/c1ccccc1)OCCCN=C1NS(=O)(=O)c2ccccc21	inactive: -21.4%	
CC(=O)O/N=C(\N)Cc1ccc(-c2csnn2)cc1		inconclusive [inhibitor, single point]
C=C(C)CNC(=O)c1ccc2nc(Cc3ccc(OC)cc3)oc2c1		inconclusive [inhibitor, single point]
O=C(Nc1ccc2c(c1)OCO2)C1CCCN(c2nc3ccccc3s2)C1 (configuration not stated)		inconclusive [inhibitor, single point]
Cc1cc2nc(-c3ccccc3)c(CC(C)(C)C)n2c(C)c1Br		active: 14.6 µM
O=C(CSc1ncnc2ccccc12)Nc1cc(S(=O)(=O)N2CCCCC2)ccc1Cl		inconclusive [inhibitor, single point]
COc1ccc([C@H]2CC(=O)C=C(c3cc(C=O)ccc3OC)C2)cc1OC		inconclusive [inhibitor, single point]
COc1ccccc1/C=C/c1nc(S(=O)(=O)c2ccccc2)c(N2CCC(C(N)=O)CC2)o1		inconclusive [inhibitor, single point]
O=c1c(Cc2ccc(F)cc2)c(O)ccn1CCCN1CCOCC1	inactive: -4.07%	
CSC1=NC(C(Cl)(Cl)Cl)N=C(c2ccccc2)N1 (configuration not stated)		active: 2.59 µM
CCc1nc2ccccc2nc1N1CCN(S(=O)(=O)c2ccccc2)CC1		inconclusive [inhibitor, single point]
C/C(=N\NC(=O)c1ccc(N2CCCC2=O)cc1)c1ccc(O)cc1O		active: 4.61 µM
CSc1nc2ccccc2nc1N(C)S(=O)(=O)c1ccc(C)cc1		inconclusive [inhibitor, single point]
CC(C)CN(C(=O)COC(=O)c1ccc2ccccc2c1)c1c(N)n(Cc2ccccc2)c(=O)[nH]c1=O		inconclusive [inhibitor, single point]
O=c1[nH]c(N2CCCCC2)nc2ncn(Cc3ccccc3)c12		inconclusive [inhibitor, single point]
COc1ccc(OC)c(Cc2cnc3nc(N)nc(N)c3c2C)c1		active: 0.259 µM
CC1CCN(CC(=O)N2CCCc3c2c(=O)oc2ccc(OCc4ccccc4)cc32)CC1		inconclusive [inhibitor, single point]
CNC(=O)c1[nH]nc2c1CCc1cc(OC)ccc1-2		inconclusive [inhibitor, single point]
O=C(N1CCN(c2cccc(Cl)c2)CC1)C1(S(=O)(=O)c2ccc(Cl)cc2)CC1	inactive: -16.7%	
CCCOc1ccc(Br)cc1CSC(=N)N		active: 6.51 µM
CCOC(=O)C1(CC)Oc2ccccc2C(c2ccc(OC)cc2)=C1C(=O)OC (configuration not stated)		inconclusive [inhibitor, single point]
O=c1[nH]nc(-c2ccccc2)c2ccccc12		inconclusive [inhibitor, single point]
CC(=O)c1ccc(NC(=O)CN(C)S(=O)(=O)c2cc3c(cc2C)NC(=O)CO3)cc1	inactive: -14.8%	

SMILES	activity change, negative = growth inhibition	Potency
Cc1ccc(S(=O)(=O)N2CCOCCOCCOCCOCCOCC2)cc1	inactive: -15.5%	
CN(C)Cc1csc(NC(=O)Nc2ccccc2-c2ccccc2)n1		inconclusive [inhibitor, single point]
CN(C)S(=O)(=O)c1ccc(Cl)c(NC(=O)CN2CCN(c3ccccn3)CC2)c1		inconclusive [inhibitor, single point]
Cc1ccc(S(=O)(=O)Nc2cc(C(F)(F)F)ccc2N2CCOCC2)c(C)c1	inconclusive: -34.6% [inhibitor]	
C=C(C)c1nc(N)nc(N)n1		inconclusive [inhibitor, single point]
CC(C)(C)S(=O)N1Cc2cc(=O)n(Cc3ccccc3)c(CCO)c2[C@H]1CCO (some centres not stated)	inconclusive: -30.3% [inhibitor]	
COCC(C)OC(=O)/C(C#N)=C\c1coc2ccc(C)cc2c1=O (configuration not stated)		inconclusive [inhibitor, single point]
O=C(CSc1nc(-c2ccc(Cl)cc2)cs1)Nc1cccc([N+](=O)[O-])c1		inconclusive [inhibitor, single point]
COc1ccc(S(=O)(=O)n2nc(-c3ccc(Cl)cc3)cc2N)cc1OC		inconclusive [inhibitor, single point]
COc1ccccc1NC(=O)c1nc(S(=O)(=O)Cc2ccccc2)ncc1Cl		active: 1.3 µM
O=C(CN1C(=O)C2CCCCN2c2ccc(C(=O)N3CCCC3)cc21)NCc1ccc(F)cc1 (configuration not stated)	inactive: -20.3%	
O=C(Nc1ccc2c(c1)OCO2)c1ccc([N+](=O)[O-])cc1[N+](=O)[O-]		inconclusive [inhibitor, partial curve]
Cc1cccc(NC(=O)c2cc(-c3cccnc3)nc3c(C)cccc23)n1		inconclusive [inhibitor, single point]
O=C(Nc1cccc(NC(=O)c2cccs2)c1)c1ccc([N+](=O)[O-])o1		active: 3.26 µM
Cc1csc2nc(O)c(C(=O)NCCCc3ccccc3)c(=O)n12		active: 14.6 µM
CCOc1c(CC2C(=O)Nc3ccc(Br)cc32)cccc1OC (configuration not stated)		inconclusive [inhibitor, single point]
Nc1cc(S(=O)(=O)Nc2ccccc2Cl)ccc1N1CCCCC1		active: 14.6 µM
CCCNC(=O)CN1C(=O)COc2ccc(S(=O)(=O)N3CCCC3)cc21	inactive: 6.04%	
Cc1ccc(C(=O)NCCc2nnc3ccc(N4CCCC4)nn23)cc1	inactive: -1.84%	
COc1ccc(SN=C2C(C)=CC(=O)C=C2C)cc1		inconclusive [inhibitor, single point]
CC1(C)Cc2c(sc(NC(=O)c3ccccc3Cl)c2C(=O)O)CO1	inactive: 5.59%	
Cc1cc(C(=O)NNc2ccc(F)cc2F)no1	inactive: -1.44%	
CCOC(=O)C1CCN(C(=O)COC(=O)C2CCN(S(=O)(=O)c3ccc(C)c(C)c3)CC2)CC1	inactive: 3.97%	
CCOc1ccccc1CNc1ncnc2onc(-c3ccc(F)cc3)c12		active: 16.4 µM
